Experimental data published in the supplement of paper PMC10126150.
Sequences with one replicate were seen in a single cluster, so their values are uncertain.

Test system: ATP
Test: switch fluorescence ratio, 500 uM ATP over buffer (Cy3 cluster intensity, sum of 5 cycles each) (fold (ratio)); higher = stronger signal-on switching upon ATP binding; sequences stand for … in TCGTCGGCAGCGTCAGATGTGTATAAGAGACAGTTTTTTTTTTTTTTTTTTTTTTTTT…TC
Details: aptamer strand: ATP DNA aptamer (quencher-CACCTGGGGGAGTATTGCGGAGGAAGG + anchor), 100 nM annealed; ATP concentration: 500 uM; one replicate
How it was run: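 After annealing to 100 nM quencher-labelled ATP aptamer, Cy3-labelled switching-strand clusters on a modified Illumina MiSeq flow-cell were imaged in selection buffer. A second image followed after 15 min with 500 uM ATP at 22 °C, and five such buffer/ATP cycles were done, each separated by NaOH stripping and re-annealing. The fluorescence ratio, averaged per switch-domain sequence, is summed target-cycle over summed buffer-cycle Cy3 intensity per cluster, with clusters outside 100-1000 RFU excluded.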
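Further: ATP exposure 15 min at 22 °C before imaging.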

Which switch fluorescence ratio does the source give for ATCGGAGAG here?
The switch fluorescence ratio was 0.967.

How did the switch fluorescence ratio turn out when ATCGGATAAA was run?
Its switch fluorescence ratio is 1.08.

ATCGGCAAAG was tested. Which switch fluorescence ratio did it give?
Its switch fluorescence ratio is 1.07.

How did the switch fluorescence ratio turn out when ATCGGCACTG was run?
Its switch fluorescence ratio is 1.05.

ATCGGCTAGG was tested. Which switch fluorescence ratio did it give?
Its switch fluorescence ratio is 0.983.

With ATCGGCTGGG as the sequence, how does the switch fluorescence ratio read?
Its switch fluorescence ratio is 1.02.

ATCGGTGGGC was tested. Which switch fluorescence ratio did it give?
Its switch fluorescence ratio is 0.988.

ATCGGTTATC was tested. Which switch fluorescence ratio did it give?
Its switch fluorescence ratio is 0.984.

ATCGTAAAAA was tested. Which switch fluorescence ratio did it give?
Its switch fluorescence ratio is 1.02.

ATCGTAGAC was tested. Which switch fluorescence ratio did it give?
The switch fluorescence ratio was 1.07.

ATCGTATAGA was tested. Which switch fluorescence ratio did it give?
Its switch fluorescence ratio is 0.955.

For ATCGTCATAA, which switch fluorescence ratio is on record?
The switch fluorescence ratio was 1.02.

How did the switch fluorescence ratio turn out when ATCGTCCTGT was run?
Its switch fluorescence ratio is 0.982.

With ATCGTCTGGT as the sequence, how does the switch fluorescence ratio read?
The switch fluorescence ratio was 1.02.

Which switch fluorescence ratio does the source give for ATCGTGAACT here?
The switch fluorescence ratio was 1.01.

Which switch fluorescence ratio does the source give for ATCGTGTAG here?
Its switch fluorescence ratio is 1.01.

For ATCGTTCACA, which switch fluorescence ratio is on record?
Its switch fluorescence ratio is 0.962.

How did the switch fluorescence ratio turn out when ATCGTTCACT was run?
The switch fluorescence ratio was 1.

Which switch fluorescence ratio does the source give for ATCGTTTAC here?
The switch fluorescence ratio was 0.983.

For ATCGTTTCAT, which switch fluorescence ratio is on record?
The switch fluorescence ratio was 1.01.

For ATCTAAGTTG, which switch fluorescence ratio is on record?
The switch fluorescence ratio was 0.998.

For ATCTACAAAG, which switch fluorescence ratio is on record?
The switch fluorescence ratio was 1.06.

How did the switch fluorescence ratio turn out when ATCTACTAGG was run?
Its switch fluorescence ratio is 1.04.

Which switch fluorescence ratio does the source give for ATCTACTGTT here?
The switch fluorescence ratio was 1.03.

How did the switch fluorescence ratio turn out when ATCTACTTGA was run?
The switch fluorescence ratio was 1.03.

How did the switch fluorescence ratio turn out when ATCTAGAGTG was run?
The switch fluorescence ratio was 0.921.

With ATCTATACCG as the sequence, how does the switch fluorescence ratio read?
Its switch fluorescence ratio is 1.02.

For ATCTCACACA, which switch fluorescence ratio is on record?
The switch fluorescence ratio was 0.968.

For ATCTCAGGAT, which switch fluorescence ratio is on record?
The switch fluorescence ratio was 0.992.

ATCTCATAAG was tested. Which switch fluorescence ratio did it give?
The switch fluorescence ratio was 1.04.

For ATCTCATTAG, which switch fluorescence ratio is on record?
Its switch fluorescence ratio is 1.02.

ATCTCCGGCT was tested. Which switch fluorescence ratio did it give?
The switch fluorescence ratio was 1.07.

ATCTCCTATG was tested. Which switch fluorescence ratio did it give?
The switch fluorescence ratio was 0.985.

With ATCTCGGGGT as the sequence, how does the switch fluorescence ratio read?
Its switch fluorescence ratio is 0.957.

Which switch fluorescence ratio does the source give for ATCTCTCACG here?
The switch fluorescence ratio was 1.02.

With ATCTCTGACC as the sequence, how does the switch fluorescence ratio read?
Its switch fluorescence ratio is 1.04.

With ATCTCTTAGA as the sequence, how does the switch fluorescence ratio read?
The switch fluorescence ratio was 0.977.

For ATCTCTTGGC, which switch fluorescence ratio is on record?
Its switch fluorescence ratio is 0.974.

With ATCTCTTTAC as the sequence, how does the switch fluorescence ratio read?
The switch fluorescence ratio was 1.06.

With ATCTGCCAGT as the sequence, how does the switch fluorescence ratio read?
The switch fluorescence ratio was 0.952.

With ATCTGCCATG as the sequence, how does the switch fluorescence ratio read?
The switch fluorescence ratio was 1.02.

With ATCTGGG as the sequence, how does the switch fluorescence ratio read?
Its switch fluorescence ratio is 1.02.

For ATCTTCAAAG, which switch fluorescence ratio is on record?
The switch fluorescence ratio was 0.977.

ATCTTCGAAA was tested. Which switch fluorescence ratio did it give?
Its switch fluorescence ratio is 1.17.

For ATCTTCTACA, which switch fluorescence ratio is on record?
Its switch fluorescence ratio is 1.02.

ATCTTCTCAC was tested. Which switch fluorescence ratio did it give?
The switch fluorescence ratio was 1.07.

Which switch fluorescence ratio does the source give for ATCTTTGCGG here?
The switch fluorescence ratio was 1.02.

How did the switch fluorescence ratio turn out when ATGAAAATCG was run?
Its switch fluorescence ratio is 1.01.

ATGAAACAAG was tested. Which switch fluorescence ratio did it give?
Its switch fluorescence ratio is 0.978.

Which switch fluorescence ratio does the source give for ATGAAACTGG here?
The switch fluorescence ratio was 0.986.

How did the switch fluorescence ratio turn out when ATGAACAACC was run?
Its switch fluorescence ratio is 1.02.

Which switch fluorescence ratio does the source give for ATGAACGACT here?
The switch fluorescence ratio was 0.985.

ATGAACGGCG was tested. Which switch fluorescence ratio did it give?
Its switch fluorescence ratio is 1.06.

With ATGAAGAATC as the sequence, how does the switch fluorescence ratio read?
Its switch fluorescence ratio is 0.966.

ATGAAGAGG was tested. Which switch fluorescence ratio did it give?
The switch fluorescence ratio was 0.97.

Which switch fluorescence ratio does the source give for ATGAAGAGTA here?
Its switch fluorescence ratio is 1.02.

With ATGAAGCTAC as the sequence, how does the switch fluorescence ratio read?
The switch fluorescence ratio was 4.89.

ATGAAGGCTG was tested. Which switch fluorescence ratio did it give?
Its switch fluorescence ratio is 1.05.

Which switch fluorescence ratio does the source give for ATGACAAACC here?
The switch fluorescence ratio was 1.4.

ATGACCCGTT was tested. Which switch fluorescence ratio did it give?
The switch fluorescence ratio was 1.01.

With ATGACGGCGG as the sequence, how does the switch fluorescence ratio read?
The switch fluorescence ratio was 0.978.

ATGACTCTGA was tested. Which switch fluorescence ratio did it give?
Its switch fluorescence ratio is 1.01.

For ATGACTGAAC, which switch fluorescence ratio is on record?
The switch fluorescence ratio was 1.29.

ATGACTGATT was tested. Which switch fluorescence ratio did it give?
The switch fluorescence ratio was 0.987.

How did the switch fluorescence ratio turn out when ATGACTTTGT was run?
The switch fluorescence ratio was 1.13.

With ATGAGAACAT as the sequence, how does the switch fluorescence ratio read?
Its switch fluorescence ratio is 1.

With ATGAGAAGGG as the sequence, how does the switch fluorescence ratio read?
Its switch fluorescence ratio is 1.03.

Which switch fluorescence ratio does the source give for ATGAGAATGT here?
The switch fluorescence ratio was 1.01.

Which switch fluorescence ratio does the source give for ATGAGCTAGG here?
Its switch fluorescence ratio is 0.968.

ATGAGGGATC was tested. Which switch fluorescence ratio did it give?
The switch fluorescence ratio was 0.919.

ATGAGTAAGC was tested. Which switch fluorescence ratio did it give?
The switch fluorescence ratio was 0.97.

For ATGAGTAGCG, which switch fluorescence ratio is on record?
Its switch fluorescence ratio is 1.06.

How did the switch fluorescence ratio turn out when ATGAGTTTAA was run?
Its switch fluorescence ratio is 0.979.

ATGATAATAG was tested. Which switch fluorescence ratio did it give?
Its switch fluorescence ratio is 0.981.

Which switch fluorescence ratio does the source give for ATGATAATCC here?
Its switch fluorescence ratio is 1.04.

ATGATACTCT was tested. Which switch fluorescence ratio did it give?
The switch fluorescence ratio was 1.05.

For ATGATACTGC, which switch fluorescence ratio is on record?
Its switch fluorescence ratio is 1.09.

With ATGATATAGT as the sequence, how does the switch fluorescence ratio read?
Its switch fluorescence ratio is 1.

How did the switch fluorescence ratio turn out when ATGATATGCT was run?
Its switch fluorescence ratio is 0.994.

Which switch fluorescence ratio does the source give for ATGATCCACT here?
The switch fluorescence ratio was 1.03.

ATGATCTCAC was tested. Which switch fluorescence ratio did it give?
The switch fluorescence ratio was 0.986.

For ATGATGAACG, which switch fluorescence ratio is on record?
The switch fluorescence ratio was 1.02.

With ATGATGCGGT as the sequence, how does the switch fluorescence ratio read?
Its switch fluorescence ratio is 1.02.

How did the switch fluorescence ratio turn out when ATGATTAAAG was run?
The switch fluorescence ratio was 1.

ATGATTGTGA was tested. Which switch fluorescence ratio did it give?
The switch fluorescence ratio was 1.01.

For ATGCAAAAGG, which switch fluorescence ratio is on record?
The switch fluorescence ratio was 0.983.

With ATGCAAGTAA as the sequence, how does the switch fluorescence ratio read?
Its switch fluorescence ratio is 1.05.

How did the switch fluorescence ratio turn out when ATGCACGATC was run?
The switch fluorescence ratio was 1.02.

With ATGCAGGCCC as the sequence, how does the switch fluorescence ratio read?
Its switch fluorescence ratio is 1.01.

For ATGCAGTAAC, which switch fluorescence ratio is on record?
The switch fluorescence ratio was 1.18.

Which switch fluorescence ratio does the source give for ATGCAGTTCC here?
The switch fluorescence ratio was 1.04.

For ATGCAGTTGA, which switch fluorescence ratio is on record?
The switch fluorescence ratio was 0.97.

For ATGCAGTTTA, which switch fluorescence ratio is on record?
The switch fluorescence ratio was 0.991.

Which switch fluorescence ratio does the source give for ATGCATATGC here?
The switch fluorescence ratio was 1.07.

Which switch fluorescence ratio does the source give for ATGCATTCGG here?
The switch fluorescence ratio was 0.995.

How did the switch fluorescence ratio turn out when ATGCCAGATC was run?
The switch fluorescence ratio was 1.04.

How did the switch fluorescence ratio turn out when ATGCCAGCGA was run?
Its switch fluorescence ratio is 1.04.

Which switch fluorescence ratio does the source give for ATGCCGACAC here?
The switch fluorescence ratio was 1.02.

Which switch fluorescence ratio does the source give for ATGCCGACGA here?
Its switch fluorescence ratio is 0.92.

With ATGCCTAGAG as the sequence, how does the switch fluorescence ratio read?
Its switch fluorescence ratio is 0.988.
